# Results: PubChem BioAssay AID504339 (National Center for Advancing Translational Sciences (NCATS), 2011)
# Screen size: about 390,000 compounds; about 17,000 (4.4%) were called active. This list was built around the results that the source calls inconclusive (neither active nor inactive); the mix of calls is not that of the screen. Calls come from the whole dose curve; as a rule, active = well fitted inhibition curve with a large enough effect; inconclusive = small, poorly fitted or top-dose-only effect; inactive = no such curve, though single readings can be large or run the other way. Where the call is inconclusive, the potency comes from a doubtful curve fit.
# Molecular target: Lysine-specific demethylase 4A (Homo sapiens) (UniProt O75164)
# Assay: qHTS Assay for Inhibitors of JMJD2A-Tudor Domain; note: nearly all actives have a fitted effect of over 50% in size
# Details: AlphaScreen JMJD2A-Tudor / H3K4me3 peptide binding; series mostly up to 114 µM
# Potency is the fitted concentration of half-maximal effect; tags give direction and shape of the fitted curve.
# UniProt O75164, sequence (O75164 whole entry, looked up, the tested form may be a part): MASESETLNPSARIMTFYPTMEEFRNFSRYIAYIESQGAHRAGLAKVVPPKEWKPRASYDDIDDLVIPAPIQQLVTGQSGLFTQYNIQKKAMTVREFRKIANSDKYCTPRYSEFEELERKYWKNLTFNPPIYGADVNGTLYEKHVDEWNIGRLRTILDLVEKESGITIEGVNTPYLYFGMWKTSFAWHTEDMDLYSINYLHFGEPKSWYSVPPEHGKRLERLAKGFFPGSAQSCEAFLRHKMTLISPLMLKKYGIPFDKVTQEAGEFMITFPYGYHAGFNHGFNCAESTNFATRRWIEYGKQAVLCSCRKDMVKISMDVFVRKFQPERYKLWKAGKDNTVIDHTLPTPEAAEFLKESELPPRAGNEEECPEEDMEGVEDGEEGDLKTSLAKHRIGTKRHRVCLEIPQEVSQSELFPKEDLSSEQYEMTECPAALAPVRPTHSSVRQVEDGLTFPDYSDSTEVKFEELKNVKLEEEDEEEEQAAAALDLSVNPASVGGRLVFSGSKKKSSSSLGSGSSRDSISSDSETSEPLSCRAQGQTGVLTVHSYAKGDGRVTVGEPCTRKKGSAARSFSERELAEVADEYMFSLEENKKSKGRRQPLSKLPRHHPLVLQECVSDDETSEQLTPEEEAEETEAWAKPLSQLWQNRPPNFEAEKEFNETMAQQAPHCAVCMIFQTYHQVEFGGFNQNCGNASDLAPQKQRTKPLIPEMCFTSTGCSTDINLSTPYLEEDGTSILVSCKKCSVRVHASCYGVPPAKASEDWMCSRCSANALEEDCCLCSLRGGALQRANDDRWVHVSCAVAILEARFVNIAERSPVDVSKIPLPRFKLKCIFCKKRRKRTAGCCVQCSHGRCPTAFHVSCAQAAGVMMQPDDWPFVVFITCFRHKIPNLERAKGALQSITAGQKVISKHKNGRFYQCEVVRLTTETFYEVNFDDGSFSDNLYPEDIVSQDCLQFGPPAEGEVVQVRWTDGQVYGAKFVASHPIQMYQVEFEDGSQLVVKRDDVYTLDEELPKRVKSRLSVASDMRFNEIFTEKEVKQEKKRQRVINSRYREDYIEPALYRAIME
row,Structure (SMILES),Potency
1,NC[C@H](Cc1ccccc1)NCCCCC1CCCCC1,inactive
2,O=C(NCc1cccc(Cl)c1)c1ccc(NC(=O)N2CC3CCCN3c3ccccc32)cc1 (stereo unspecified),"inconclusive: 12.6 µM [inhibitor, full curve]"
3,O=[N+]([O-])c1cc(-c2ccccc2)cc([N+](=O)[O-])c1O,"inconclusive: 39.8 µM [inhibitor, full curve]"
4,CCOc1ccc(S(=O)(=O)NCC(=O)NC2CCCCC2)cc1,inactive
5,CCC(CC)N1CCN(CC2CC=CCC2)CC1 (stereo unspecified),active: 1.78 µM
6,O=C1CC(c2ccco2)CC(O)=C1C=Nc1cc(Cl)ccc1Cl (stereo unspecified),"inconclusive: 79.4 µM [inhibitor, partial curve]"
7,COC1=CC(=Cc2c(N)n3nc(CC(=O)N4CCOCC4)sc3nc2=O)C=C(OC)C1=O,"inconclusive: 15.8 µM [inhibitor, full curve]"
8,Cc1nc2cc(N)ccc2n1-c1ccccc1,active: 35.5 µM
9,CCN1C(C(=O)c2ccccc2)=C(Nc2ccccc2C)c2ccccc2S1(=O)=O,"inconclusive: 17.8 µM [inhibitor, partial curve]"
10,O=S(=O)(NCc1cc(-c2ccccc2Cl)no1)c1ccccc1,"inconclusive: 100 µM [inhibitor, single point]"
11,COc1cc(NC(=O)C2CCN(S(=O)(=O)c3ccc(N4CCCC4=O)cc3)CC2)cc(OC)c1,"inconclusive: 35.5 µM [inhibitor, full curve, poor fit]"
12,O=C1CS/C(=N/N=C/c2ccncc2)N1,"inconclusive: 25.1 µM [inhibitor, partial curve]"
13,Nc1ccc(C2(c3ccc(N)cc3)OC(=O)c3ccccc32)cc1,active: 35.5 µM
14,O=C(COC(=O)CCOc1ccccc1)NCc1ccco1,active: 39.8 µM
15,CC(=O)c1c(C)[nH]c(C(=O)OCC(=O)N2CCc3ccccc3C2)c1C,inactive
16,Cc1cc(C)n(-c2nnc(C)n2NS(=O)(=O)c2ccc(F)cc2)n1,"inconclusive: 89.1 µM [inhibitor, single point]"
17,O=S(=O)(NCCc1csc(-c2cccnc2)n1)c1ccc2c(c1)OCCO2,inactive
18,Cc1nc(NC(=O)Nc2ccc(Cl)cc2)sc1C,inactive
19,O=C1CCCC2=C1C(c1ccc(Br)cc1)c1c([nH]c(=S)[nH]c1=O)N2 (stereo unspecified),active: 39.8 µM
20,CCCOCC(O)CCc1n[nH]c(=S)n1-c1ccccc1 (stereo unspecified),active: 50.1 µM
21,Cc1ccc(S(=O)(=O)NCC(=O)N2CCCCC2)cc1,inactive
22,CCCN(CCC)C(=O)c1cc([N+](=O)[O-])cc2c1-c1ccc([N+](=O)[O-])cc1C2=C(C#N)C#N,"inconclusive: 39.8 µM [inhibitor, partial curve]"
23,Cc1cc2cc(CN(CCN(C)C)C(=S)NCc3ccco3)c(=O)[nH]c2cc1C,"inconclusive: 56.2 µM [inhibitor, partial curve]"

row,Structure (SMILES),Potency
1,COc1ccc(N(CC(=O)N2CCN(c3cccc(C)c3C)CC2)S(=O)(=O)c2c(C)noc2C)cc1,inactive
2,Cc1cc(C(=O)N/N=C/c2cc(Br)cc([N+](=O)[O-])c2O)c2ccccc2n1,"inconclusive: 35.5 µM [inhibitor, single point]"
3,CCCSc1ncc(Cl)c(C(=O)Nc2sc3c(c2C(=O)NCCOC)CCCC3)n1,inactive
4,Cc1ccc(-n2c(N)c(C(=O)Nc3ccccc3F)sc2=S)cc1C,"inconclusive: 56.2 µM [inhibitor, partial curve]"
5,CC(C)(C)c1ccc2c(c1)OC(C(=O)N/N=C/c1ccc([N+](=O)[O-])o1)CO2 (stereo unspecified),"inconclusive: 79.4 µM [inhibitor, partial curve]"
6,CCOc1ccc(NS(=O)(=O)c2ccc3[nH]c4c(c3c2)CCCC4)cc1,"inconclusive: 31.6 µM [inhibitor, full curve]"
7,COc1ccc2[nH]c(CN3CCC(CO)(CCOc4ccccc4)CC3)c(C)c2c1,"inconclusive: 50.1 µM [inhibitor, partial curve]"
8,CC(NC(=O)/C(C#N)=C/c1ccc(C(=O)O)cc1)c1ccccc1 (stereo unspecified),inactive
9,Cc1nn(-c2ccccc2)c(C)c1/C=N/n1c(-c2ccc(Cl)cc2)n[nH]c1=S,"inconclusive: 70.8 µM [inhibitor, single point]"
10,COc1ccc(Cl)cc1C(=O)NNC(=S)NC(=O)c1cc(-c2ccc(Cl)cc2)nc2ccccc12,"inconclusive: 50.1 µM [inhibitor, partial curve]"
11,Cc1cc(C)cc(C(=O)NC2CC(C)(C)NC(C)(C)C2)c1,"inconclusive: 22.4 µM [inhibitor, partial curve, poor fit]"
12,Cc1nn2c(=O)cc(COC(=O)c3cccc(NC(=O)c4cccs4)c3)nc2s1,inactive
13,CCCC(=O)OCCNc1cc(Sc2nccn2C)c2nonc2c1[N+](=O)[O-],inactive
14,Cc1ccc2occ(CN3CCN(c4ccccc4)CC3)c(=O)c2c1,"inconclusive: 56.2 µM [inhibitor, partial curve, poor fit]"
15,Cc1cccc(N(C)S(=O)(=O)c2cc3c(cc2Cl)NC(=O)CO3)c1,"inconclusive: 56.2 µM [inhibitor, partial curve]"
16,CCOc1ccccc1C(=O)Nc1ccc2c(c1)N(C)C(=O)c1ccccc1S2,inactive
17,COc1cc(OC)cc(C(=O)Nc2ccc(Nc3ccccc3)cc2)c1,"inconclusive: 28.2 µM [inhibitor, full curve]"
18,Cc1cc(/C=N/n2cnnc2)c(C)n1-c1ccc(OCc2ccc(Cl)cc2)cc1,active: 44.7 µM
19,NC(=O)CNC(=O)[C@@H]1CC2(CC(c3ccc(Cl)cc3)=NO2)CN1C(=O)c1ccccc1 (stereo partly specified),inactive
20,CCOC(=O)c1c(NC(C)=O)sc2c(OCC(O)CNC(C)(C)C)c(Br)ccc12 (stereo unspecified),"inconclusive: 50.1 µM [inhibitor, partial curve]"
21,COCC1CCN(C(=O)c2cc(COc3ccc4ncccc4c3)on2)CC1,active: 15.8 µM
22,COc1ccc(C(=O)N(Cc2ccc(C(C)C)cc2)C2CCS(=O)(=O)C2)cc1 (stereo unspecified),inactive
23,CCOC(=O)c1cc(-c2ccc(C)cc2)n(CCC(=O)NCCN(C)C)c1C,"inconclusive: 44.7 µM [inhibitor, partial curve]"
